{"source": "a collection of fitness landscapes (doi:10.1126/science.1257360)", "parents": {"B1": {"name": "PhoQ; a variant is named by its letters at X, in order, P23837 (parent)", "chain": "MKKLLRLFFPLSLRVRFLLATAAVVLVLSLAYGMVALIGYSVSFDKTTFRLLRGESNLFYTLAKWENNKLHVELPENIDKQSPTMTLIYDENGQLLWAQRDVPWLMKMIQPDWLKSNGFHEIEADVNDTSLLLSGDHSIQQQLQEVREDDDDAEMTHSVAVNVYPATSRMPKLTIVVVDTIPVELKSSYMVWSWFIYVLSANLLLVIPLLWVAAWWSLRPIEALAKEVRELEEHNRELLNPATTRELTSLVRNLNRLLKSERERYDKYRTTLTDLTHSLKTPLXXLQXXLRSLRSEKMSVSDAEPVMLEQISRISQQIGYYLHRASMRGGTLLSRELHPVAPLLDNLTSALNKVYQRKGVNISLDISPEISFVGEQNDFVEVMGNVLDNACKYCLEFVEISARQTDEHLYIVVEDDGPGIPLSKREVIFDRGQRVDTLRPGQGVGLAVAREITEQYEGKIVAGESMLGGARMEVIFGRQHSAPKDE"}}, "note": "This is one part of the list.", "data": [{"variants_of": "B1", "test": "enrichment ratio after two sorts for PhoP signalling (ratio (wild type AVST 3.29)); higher = more functional", "conditions": "with PhoP (E. coli)", "values": [{"variant": "VDVS", "enrichment ratio": "≤ 0.25"}, {"variant": "LETM", "enrichment ratio": "≤ 0.25"}, {"variant": "CFPS", "enrichment ratio": "≤ 0.25"}, {"variant": "KCIH", "enrichment ratio": "≤ 0.25"}, {"variant": "PLKD", "enrichment ratio": "≤ 0.25"}, {"variant": "MNAH", "enrichment ratio": 10.2}, {"variant": "DPHL", "enrichment ratio": "≤ 0.25"}, {"variant": "TWLK", "enrichment ratio": "≤ 0.25"}, {"variant": "FAMC", "enrichment ratio": 0.442}, {"variant": "TWCW", "enrichment ratio": "≤ 0.25"}, {"variant": "TKEG", "enrichment ratio": "≤ 0.25"}, {"variant": "SKHL", "enrichment ratio": "≤ 0.25"}, {"variant": "IAYH", "enrichment ratio": "≤ 0.25"}, {"variant": "ELSH", "enrichment ratio": 1.14}, {"variant": "KTRN", "enrichment ratio": "≤ 0.25"}, {"variant": "VGLR", "enrichment ratio": "≤ 0.25"}, {"variant": "GVIW", "enrichment ratio": "≤ 0.25"}, {"variant": "HYDM", "enrichment ratio": "≤ 0.25"}, {"variant": "NFTS", "enrichment ratio": "≤ 0.25"}, {"variant": "EIVM", "enrichment ratio": "≤ 0.25"}, {"variant": "PRAP", "enrichment ratio": "≤ 0.25"}, {"variant": "HLKK", "enrichment ratio": "≤ 0.25"}, {"variant": "DDYA", "enrichment ratio": "≤ 0.25"}, {"variant": "VQAR", "enrichment ratio": "≤ 0.25"}, {"variant": "FYKG", "enrichment ratio": "≤ 0.25"}, {"variant": "AKHR", "enrichment ratio": "≤ 0.25"}, {"variant": "QSLK", "enrichment ratio": "≤ 0.25"}, {"variant": "RLMR", "enrichment ratio": "≤ 0.25"}, {"variant": "NPMF", "enrichment ratio": "≤ 0.25"}, {"variant": "APVW", "enrichment ratio": "≤ 0.25"}, {"variant": "TGDY", "enrichment ratio": "≤ 0.25"}, {"variant": "GHLW", "enrichment ratio": "≤ 0.25"}, {"variant": "IGKF", "enrichment ratio": "≤ 0.25"}, {"variant": "SPID", "enrichment ratio": "≤ 0.25"}, {"variant": "EHCI", "enrichment ratio": "≤ 0.25"}, {"variant": "DGNV", "enrichment ratio": "≤ 0.25"}, {"variant": "HMYQ", "enrichment ratio": "≤ 0.25"}, {"variant": "AGTI", "enrichment ratio": 16.7}, {"variant": "MSEC", "enrichment ratio": "≤ 0.25"}, {"variant": "GMEG", "enrichment ratio": "≤ 0.25"}, {"variant": "VWGS", "enrichment ratio": "≤ 0.25"}, {"variant": "MVMQ", "enrichment ratio": "≤ 0.25"}, {"variant": "LWSG", "enrichment ratio": "≤ 0.25"}, {"variant": "TWFN", "enrichment ratio": "≤ 0.25"}, {"variant": "QRGN", "enrichment ratio": "≤ 0.25"}, {"variant": "DWHG", "enrichment ratio": "≤ 0.25"}, {"variant": "KTWW", "enrichment ratio": "≤ 0.25"}, {"variant": "VWPH", "enrichment ratio": "≤ 0.25"}, {"variant": "TVSP", "enrichment ratio": "≤ 0.25"}, {"variant": "GDFI", "enrichment ratio": "≤ 0.25"}, {"variant": "GGCW", "enrichment ratio": "≤ 0.25"}, {"variant": "GSQW", "enrichment ratio": "≤ 0.25"}, {"variant": "QSEY", "enrichment ratio": "≤ 0.25"}, {"variant": "PCET", "enrichment ratio": "≤ 0.25"}, {"variant": "AWGV", "enrichment ratio": "≤ 0.25"}, {"variant": "PDWH", "enrichment ratio": "≤ 0.25"}, {"variant": "NNHY", "enrichment ratio": "≤ 0.25"}, {"variant": "GQAD", "enrichment ratio": "≤ 0.25"}, {"variant": "QAPI", "enrichment ratio": "≤ 0.25"}, {"variant": "KNFV", "enrichment ratio": "≤ 0.25"}, {"variant": "KRGC", "enrichment ratio": "≤ 0.25"}, {"variant": "LRDC", "enrichment ratio": "≤ 0.25"}, {"variant": "TYCS", "enrichment ratio": 0.648}, {"variant": "TPSK", "enrichment ratio": "≤ 0.25"}, {"variant": "RFGT", "enrichment ratio": "≤ 0.25"}, {"variant": "DMCT", "enrichment ratio": "≤ 0.25"}, {"variant": "QQEY", "enrichment ratio": "≤ 0.25"}, {"variant": "TYCQ", "enrichment ratio": 0.376}, {"variant": "NPGM", "enrichment ratio": "≤ 0.25"}, {"variant": "INHN", "enrichment ratio": "≤ 0.25"}, {"variant": "RLAR", "enrichment ratio": "≤ 0.25"}, {"variant": "VGTM", "enrichment ratio": "≤ 0.25"}, {"variant": "GFMR", "enrichment ratio": "≤ 0.25"}, {"variant": "RILC", "enrichment ratio": "≤ 0.25"}, {"variant": "FVPC", "enrichment ratio": "≤ 0.25"}, {"variant": "TLHG", "enrichment ratio": "≤ 0.25"}, {"variant": "HAVQ", "enrichment ratio": "≤ 0.25"}, {"variant": "NMAV", "enrichment ratio": "≤ 0.25"}, {"variant": "QKVT", "enrichment ratio": "≤ 0.25"}, {"variant": "DSFY", "enrichment ratio": "≤ 0.25"}, {"variant": "LYHT", "enrichment ratio": "≤ 0.25"}, {"variant": "STHE", "enrichment ratio": "≤ 0.25"}, {"variant": "TLMY", "enrichment ratio": "≤ 0.25"}, {"variant": "MKSH", "enrichment ratio": "≤ 0.25"}]}]}
